Measured values: the BET-seq Pho4 binding data (Le et al. 2018)
The list shows a part of the results. These are noisy estimates, calculated here from bound and input reads.

target: T1, Pho4 (S. cerevisiae) (UniProt P07270); experiment: relative binding free energy (BET-seq); higher = weaker binding; conditions: reference: library average
T1 sequence: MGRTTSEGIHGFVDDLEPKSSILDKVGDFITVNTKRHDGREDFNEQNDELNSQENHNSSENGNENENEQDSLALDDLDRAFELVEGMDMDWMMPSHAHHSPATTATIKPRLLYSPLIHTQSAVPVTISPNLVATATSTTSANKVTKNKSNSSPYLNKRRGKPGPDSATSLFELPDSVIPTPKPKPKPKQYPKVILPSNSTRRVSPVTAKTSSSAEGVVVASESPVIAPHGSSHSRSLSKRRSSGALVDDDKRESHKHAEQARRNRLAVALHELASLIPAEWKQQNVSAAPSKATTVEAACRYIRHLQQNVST

Q: For CAGGGCACGTGCGGGT, which “relative binding free energy” value is on record?
A: The value was -0.09 kcal/mol.

Q: For GTTGGCACGTGGGTCT, which “relative binding free energy” value is on record?
A: The value was -0.26 kcal/mol.

Q: With TGTAGCACGTGTTGGG as the sequence, how does the “relative binding free energy” value read?
A: Its value is 0.05 kcal/mol.

Q: For TATCACACGTGATTGG, which “relative binding free energy” value is on record?
A: Its value is 0.29 kcal/mol.

Q: How did the “relative binding free energy” value turn out when GTGGGCACGTGTTTCT was run?
A: The value was -0.09 kcal/mol.

Q: TTTGGCACGTGGCGGA was tested. Which “relative binding free energy” value did it give?
A: Its value is -0.18 kcal/mol.

Q: How did the “relative binding free energy” value turn out when TAGTGCACGTGGTCTG was run?
A: The value was -0.16 kcal/mol.

Q: How did the “relative binding free energy” value turn out when GTGTGCACGTGCGCGG was run?
A: The value was -0.24 kcal/mol.

Q: How did the “relative binding free energy” value turn out when AAGGACACGTGGTGGT was run?
A: Its value is -0.04 kcal/mol.

Q: How did the “relative binding free energy” value turn out when GTATGCACGTGTTGCT was run?
A: Its value is 0.03 kcal/mol.

Q: Which “relative binding free energy” value does the source give for AGCATCACGTGAAGGT here?
A: The value was 0.36 kcal/mol.

Q: How did the “relative binding free energy” value turn out when TCTGACACGTGGTTTT was run?
A: Its value is -0.03 kcal/mol.

Q: AATGGCACGTGTTTAA was tested. Which “relative binding free energy” value did it give?
A: Its value is -0.2 kcal/mol.

Q: Which “relative binding free energy” value does the source give for ACTGTCACGTGGGTGG here?
A: The value was -0.03 kcal/mol.

Q: Which “relative binding free energy” value does the source give for GTATTCACGTGATTGC here?
A: Its value is 0.17 kcal/mol.

Q: GCGTGCACGTGACGTG was tested. Which “relative binding free energy” value did it give?
A: The value was 0.17 kcal/mol.

Q: With TGTAACACGTGATGTA as the sequence, how does the “relative binding free energy” value read?
A: The value was 0.11 kcal/mol.

Q: GGTATCACGTGTTAGG was tested. Which “relative binding free energy” value did it give?
A: Its value is 0.14 kcal/mol.

Q: Which “relative binding free energy” value does the source give for ATCATCACGTGTTTTT here?
A: Its value is 0.04 kcal/mol.

Q: With GTGTGCACGTGAGGAT as the sequence, how does the “relative binding free energy” value read?
A: The value was 0.34 kcal/mol.

Q: CAGTACACGTGGGGTT was tested. Which “relative binding free energy” value did it give?
A: Its value is -0.02 kcal/mol.

Q: How did the “relative binding free energy” value turn out when TGTTTCACGTGTTAGT was run?
A: Its value is 0.18 kcal/mol.

Q: Which “relative binding free energy” value does the source give for CAGTTCACGTGTTGAG here?
A: Its value is 0.28 kcal/mol.

Q: For CAGAACACGTGGGGTG, which “relative binding free energy” value is on record?
A: The value was -0.2 kcal/mol.

Q: Which “relative binding free energy” value does the source give for TACTGCACGTGAGTGT here?
A: The value was 0.09 kcal/mol.

Q: With GCGGCCACGTGGTCGG as the sequence, how does the “relative binding free energy” value read?
A: The value was -0.03 kcal/mol.

Q: Which “relative binding free energy” value does the source give for GTTGACACGTGTGGTC here?
A: The value was -0.01 kcal/mol.

Q: With AGGGACACGTGGTGTT as the sequence, how does the “relative binding free energy” value read?
A: The value was -0.08 kcal/mol.

Q: How did the “relative binding free energy” value turn out when TCCGGCACGTGGTTTG was run?
A: Its value is -0.06 kcal/mol.

Q: CAAGTCACGTGGGGAT was tested. Which “relative binding free energy” value did it give?
A: The value was -0.1 kcal/mol.

Q: CCTTTCACGTGTTTTG was tested. Which “relative binding free energy” value did it give?
A: Its value is 0.16 kcal/mol.

Q: GAAGACACGTGTGATG was tested. Which “relative binding free energy” value did it give?
A: Its value is 0.25 kcal/mol.

Q: Which “relative binding free energy” value does the source give for AGCGGCACGTGGACGG here?
A: Its value is -0.05 kcal/mol.

Q: For TAGTGCACGTGTTCTT, which “relative binding free energy” value is on record?
A: The value was -0.04 kcal/mol.

Q: How did the “relative binding free energy” value turn out when TCGGTCACGTGTCGGT was run?
A: Its value is 0.24 kcal/mol.

Q: GGAATCACGTGAAGGT was tested. Which “relative binding free energy” value did it give?
A: Its value is 0.42 kcal/mol.

Q: How did the “relative binding free energy” value turn out when GGGCGCACGTGTCGTA was run?
A: Its value is -0.1 kcal/mol.

Q: For ACGAACACGTGAGGGT, which “relative binding free energy” value is on record?
A: The value was 0.25 kcal/mol.

Q: How did the “relative binding free energy” value turn out when ATCATCACGTGGGGGA was run?
A: The value was 0 kcal/mol.

Q: How did the “relative binding free energy” value turn out when CTAGCCACGTGTTGGT was run?
A: Its value is -0.09 kcal/mol.

Q: How did the “relative binding free energy” value turn out when TTTTTCACGTGAAGTC was run?
A: The value was 0.31 kcal/mol.

Q: With AGAGTCACGTGTTATC as the sequence, how does the “relative binding free energy” value read?
A: Its value is 0.24 kcal/mol.

Q: With CTGTGCACGTGAGAGA as the sequence, how does the “relative binding free energy” value read?
A: The value was 0.42 kcal/mol.

Q: With TAGTGCACGTGGTTCA as the sequence, how does the “relative binding free energy” value read?
A: Its value is -0.13 kcal/mol.

Q: GTGTACACGTGGGTCC was tested. Which “relative binding free energy” value did it give?
A: The value was -0.03 kcal/mol.

Q: Which “relative binding free energy” value does the source give for GCAGACACGTGGGGTT here?
A: The value was -0.1 kcal/mol.

Q: For AGGTACACGTGAGAAG, which “relative binding free energy” value is on record?
A: The value was 0.25 kcal/mol.

Q: Which “relative binding free energy” value does the source give for TTGTGCACGTGTGATT here?
A: The value was 0.03 kcal/mol.

Q: TATCTCACGTGTGTTT was tested. Which “relative binding free energy” value did it give?
A: The value was 0.27 kcal/mol.

Q: Which “relative binding free energy” value does the source give for ATAAGCACGTGTGTTA here?
A: The value was -0.06 kcal/mol.

Q: How did the “relative binding free energy” value turn out when TAGGTCACGTGCGCAT was run?
A: The value was 0 kcal/mol.

Q: With TGGCTCACGTGTGCTT as the sequence, how does the “relative binding free energy” value read?
A: Its value is 0.13 kcal/mol.

Q: ATTGGCACGTGTGCAA was tested. Which “relative binding free energy” value did it give?
A: The value was -0.13 kcal/mol.

Q: Which “relative binding free energy” value does the source give for GGATTCACGTGATGTA here?
A: The value was 0.35 kcal/mol.

Q: For AGAATCACGTGTGGGA, which “relative binding free energy” value is on record?
A: The value was 0.35 kcal/mol.

Q: Which “relative binding free energy” value does the source give for GCGGGCACGTGTATGG here?
A: Its value is -0.07 kcal/mol.

Q: For GTCTTCACGTGGCTTG, which “relative binding free energy” value is on record?
A: Its value is 0.32 kcal/mol.

Q: GTAATCACGTGAATTT was tested. Which “relative binding free energy” value did it give?
A: The value was 0.4 kcal/mol.

Q: For GATAGCACGTGCGGGG, which “relative binding free energy” value is on record?
A: The value was -0.07 kcal/mol.

Q: With TATGTCACGTGTCTAT as the sequence, how does the “relative binding free energy” value read?
A: Its value is -0.08 kcal/mol.

Q: How did the “relative binding free energy” value turn out when AGTAGCACGTGGGCTA was run?
A: Its value is -0.3 kcal/mol.

Q: For TTAGTCACGTGGCGCT, which “relative binding free energy” value is on record?
A: The value was 0.02 kcal/mol.

Q: How did the “relative binding free energy” value turn out when ATGTTCACGTGTTATT was run?
A: The value was 0.21 kcal/mol.
